# Experimental data as given in PubChem BioAssay AID2675 (National Center for Advancing Translational Sciences (NCATS), 2010).
# Hit rate of the full screen: of about 280,000 compounds, about 100 (0.036%) were called active. This list was built around the results that the source calls inconclusive (neither active nor inactive); the mix of calls is not that of the screen. Calls follow the shape of the dose curve; as a rule, active = well fitted inhibition curve with a large enough effect in the signal ratio, with a control signal flat (not every such curve was filed as active); inconclusive = small, poorly fitted or top-dose-only effect, or effect the other way, or a change in a side signal; inactive = no such curve, though single readings can be large or run the other way; the % refers to the signal ratio. Potencies beside an inconclusive call are fits to weak or partial responses and may not hold up. A note “side channel” means that the fit belongs to a control or component signal, not to the main read-out.
# Biological target: Muscleblind-like protein 1 (Homo sapiens) (UniProt Q9NR56)
# Sequence of UniProt Q9NR56 (Q9NR56 whole entry, looked up): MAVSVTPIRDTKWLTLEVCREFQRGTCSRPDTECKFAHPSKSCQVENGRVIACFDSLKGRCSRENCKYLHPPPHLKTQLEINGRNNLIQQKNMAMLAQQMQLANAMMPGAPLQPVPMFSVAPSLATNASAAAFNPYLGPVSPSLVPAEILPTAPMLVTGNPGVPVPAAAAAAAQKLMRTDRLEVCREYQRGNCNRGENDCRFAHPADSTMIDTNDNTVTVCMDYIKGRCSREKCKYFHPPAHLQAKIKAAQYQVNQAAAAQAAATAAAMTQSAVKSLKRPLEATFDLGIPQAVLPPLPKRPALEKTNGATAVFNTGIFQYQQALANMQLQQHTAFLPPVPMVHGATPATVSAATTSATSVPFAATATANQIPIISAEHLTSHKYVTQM
# Test: qHTS Assay for Inhibitors of MBNL1-poly(CUG) RNA binding
# Conditions: TR-FRET MBNL1-His/biotin-(CUG)12 binding, 665/545 ratio; activity change, negative = inhibition: at 57.5 µM (top of the series)
# In short: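 MBNL1-His + Biotin-(CUG)12, cpd titration 92 nM–58 uM; Tb anti-His Ab 0.055 ng/ul, SA-XL665 5 nM (final); 60 min RT; ratiometric 665/545 nm, Ex 340 nm; normalized to buffer and full-complex controls.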
# % is scaled to controls: 0 for no effect and ±100 for the full control effect; potency is read from the fitted curve at half-maximal effect; tags tell the direction and shape of the fitted curve or compound fluorescence and quenching.
Structure (SMILES),Potency,"activity change, negative = inhibition"
CCOCCOC(=O)COc1ccc(N2C(=O)c3ccccc3C2=O)cc1,"inconclusive: 15.8 µM [quencher, side channel, partial curve]",–
Cc1cc(-c2nnc3n2N=C(c2ccc(-c4ccccc4)cc2)CS3)n[nH]1,"inconclusive: 28.2 µM [quencher, side channel, partial curve]",–
O=C(Nc1ccccc1)OC1CC2CC1C1CCCC21 (centres undefined),–,inactive: 15.7%
CCOC(=O)C1=C(CSc2nc3c(cc2C#N)CN(C)CC3)OC(N)=C(C#N)C1c1ccc(Cl)cc1 (centres undefined),"inconclusive: 25.1 µM [quencher, side channel, single point]",–
COc1ccc(N2C(=O)C(Cl)=C(N3CCOCC3)C2=O)cc1,"inconclusive: 8.91 µM [quencher, side channel, partial curve]",–
CC(=O)C1=C(O)C(=O)N(c2ccc(O)cc2)C1c1ccccc1[N+](=O)[O-] (centres undefined),"inconclusive: 15.8 µM [quencher, side channel, partial curve]",–
O=C(c1nn2c(C(F)(F)F)cc(-c3ccc(F)cc3)nc2c1Cl)N1CCOCC1,"inconclusive: 3.16 µM [quencher, side channel, single point]",–
CCCCCCCCN1C(=O)C(O)=C(C(C)=O)C1c1ccccn1 (centres undefined),"inconclusive: 8.91 µM [quencher, side channel, partial curve]",–
CCn1c2ccc(F)cc2c2nnc(SCCN3CCCCC3)nc21,"inconclusive: 11.2 µM [quencher, side channel, partial curve]",–
COc1ccc(C2C(C(C)=O)=C(O)C(=O)N2c2nccs2)c(OC)c1 (centres undefined),"inconclusive: 25.1 µM [quencher, partial curve]",–
CC(C)[C@@H]1NC(=O)c2cc([N+](=O)[O-])cc(F)c2NCCC[C@@H](C(N)=O)NC(=O)[C@H](CO)NC1=O,"inconclusive: 20 µM [quencher, side channel, partial curve]",–
COc1ccc2oc(=O)c(C(=O)Nc3ccccc3C)cc2c1,"inconclusive: 8.91 µM [quencher, side channel, partial curve]",–
CCCNC(=O)c1cc(OC)c(OC)cc1[N+](=O)[O-],"inconclusive: 3.16 µM [quencher, side channel, single point]",–
NC(=O)c1sc2nc(-c3cccnc3)ccc2c1N,"inconclusive: 15.8 µM [quencher, partial curve]",–
O=C(O)c1ccc(Nc2ccc3nonc3c2[N+](=O)[O-])cc1,"inconclusive: 10 µM [quencher, side channel, partial curve]",–
Cc1ccc([N+](=O)[O-])c(C(=O)N/N=C/c2cccnc2)c1,"inconclusive: 10 µM [quencher, side channel, partial curve]",–
O=C(O)c1ccc(CNc2ccccc2C(=O)O)cc1,–,inactive: -29.2%
O=C(NCCO)/C(=C\c1ccc([N+](=O)[O-])o1)NC(=O)c1ccccc1,"inconclusive: 14.1 µM [quencher, partial curve]",–
CCc1nnc(NC(=O)CCC(=O)N2CCC(Cc3ccccc3)CC2)s1,–,inactive: 1.3%
CSc1nc(N(C)CCO)c2sc3nc(-c4ccco4)c4c(c3c2n1)CCC4,–,inactive: 21.5%

Structure (SMILES),Potency,"activity change, negative = inhibition"
O=C(c1ccco1)N1CCN(C(=O)N2CCCC2)CC1,"inconclusive: 3.98 µM [inhibitor, single point]",–
COc1cc(C(=O)N/C(=C\c2cn(C)c3ccccc23)C(=O)NCCCn2ccnc2)cc(OC)c1OC,"inconclusive: 25.1 µM [quencher, side channel, partial curve]",–
N#CC1=C(S)N(c2ccccc2)C(c2ccc(-c3ccc(Cl)c(Cl)c3)o2)NC1=O (centres undefined),"inconclusive: 39.8 µM [quencher, side channel, single point]",–
Nc1c(C(=O)Nc2ccc(F)cc2)sc2nc(-c3ccco3)ccc12,"inconclusive: 31.6 µM [quencher, side channel, single point]",–
COc1ccc(NC(=O)CCCC(=O)c2ccccc2)c(OC)c1,–,inactive: 8.2%
COc1ccc(NC(=O)NCCCCc2ccccc2)cc1,–,inactive: -12.2%
O=C(CNc1ccc2ccccc2c1)N/N=C/c1cc2ccccc2nc1Cl,"inconclusive: 25.1 µM [quencher, side channel, partial curve]",–
CS(=O)(=O)N1N=C(c2ccco2)CC1c1cccc([N+](=O)[O-])c1 (centres undefined),"inconclusive: 28.2 µM [quencher, side channel, single point]",–
O=c1oc2cc(O)c(Cl)cc2c2ccccc12,"inconclusive: 17.8 µM [fluorescent, side channel, partial curve]",–
CC(=O)Nc1ccc(-c2csc(NCc3ccccc3)n2)cc1,"inconclusive: 28.2 µM [quencher, side channel, partial curve]",–
O=C(COc1ccc2cc(-c3ccccc3)c(=O)oc2c1)NCC1CCC(C(=O)O)CC1 (centres undefined),"inconclusive: 8.91 µM [quencher, side channel, full curve, poor fit]",–
Cc1ccc2c(c1)C(=C(C#N)C#N)C(=O)N2CCN1CCOCC1,–,inactive: 22.1%
CCOP(=O)(OCC)/C(C#N)=C/c1ccc([N+](=O)[O-])cc1,"inconclusive: 3.16 µM [quencher, side channel, partial curve]",–
COc1ccc(C2=NOC(C(=O)NCC(C)C)C2)cc1 (centres undefined),–,inactive: -5.18%
CC(C)[C@H]1CN=C2N(CCNC(=O)CCC3CCCCC3)[C@H](Cc3ccc(O)cc3)CN21,"inconclusive: 8.91 µM [inhibitor, full curve, poor fit]",–
Cn1c(CCN2CCN(c3ccccn3)CC2)nc2cc(NS(=O)(=O)c3ccccc3)ccc21,–,inactive: -15.4%
Clc1ccc(-n2ncc3c(N4CCCCCC4)ncnc32)cc1,"inconclusive: 39.8 µM [fluorescent, side channel, single point]",–
Cc1ccc2nc(N3CCN(C(=O)CCC(=O)O)CC3)nc(-c3ccccc3)c2c1,–,inactive: 11.3%
COc1ccccc1NC(=O)CC(=O)c1cccc([N+](=O)[O-])c1,"inconclusive: 28.2 µM [quencher, partial curve]",–
O=C(NCCCN1CCCC1)c1ccc2c(Cl)c3c(nc2c1)CCCC3,"inconclusive: 28.2 µM [quencher, side channel, partial curve]",–

Structure (SMILES),Potency,"activity change, negative = inhibition"
O=c1[nH]c2ccccc2nc1/C=C(\O)C(F)F,"inconclusive: 17.8 µM [quencher, side channel, partial curve]",–
O=c1c2sccc2nc(SCc2cc(=O)n3cc(Cl)ccc3n2)n1Cc1ccccn1,"inconclusive: 7.94 µM [quencher, side channel, partial curve]",–
COc1ccccc1N1CCN(S(=O)(=O)c2ccc3c4c(cccc24)C(=O)N3)CC1,"inconclusive: 25.1 µM [quencher, side channel, single point]",–
O=C(OCC(=O)N1CCOCC1)c1ccc(Cl)cc1[N+](=O)[O-],"inconclusive: 12.6 µM [quencher, partial curve]",–
COC(=O)C1=C(C(=O)OC)C(c2ccc(OC)c(OC)c2)c2sc(=O)[nH]c2S1 (centres undefined),"inconclusive: 28.2 µM [quencher, single point]",–
CC(C)C(NC(=O)C12CC3CC(CC(C3)C1)C2)C(=O)NC1=NCCS1 (centres undefined),–,inactive: -0.943%
Cn1c(CNc2nc(-c3ccccc3)cs2)nnc1SCC(=O)OC1CCCCC1,"inconclusive: 0.708 µM [quencher, side channel, full curve, poor fit]",–
CCCCN1C(=O)C2Cc3c([nH]c4ccccc34)CN2C1=S (centres undefined),"inconclusive: 39.8 µM [quencher, single point]",–
COc1ccc(-c2nnn(CC(=O)N3CCN(c4ccccc4OC)CC3)n2)cc1OC,"inconclusive: 7.08 µM [fluorescent, side channel, single point]",–
CCOC(=O)C1=C(CN2CCSCC2)NC(=O)NC1c1cccc([N+](=O)[O-])c1 (centres undefined),"inconclusive: 25.1 µM [quencher, side channel, partial curve]",–
O=C(O)/C=C/C(=O)Nc1ccc(S(=O)(=O)N2CCCC2)cc1,"inconclusive: 126 µM [inhibitor, partial curve]",–
COc1cccc(/C=C2\SC(=O)N(CCC(=O)NNC(=O)c3cccc(Cl)c3)C2=O)c1,"inconclusive: 35.5 µM [fluorescent, side channel, partial curve, poor fit]",–
CCN(CC)c1ccc(/C=N/NC(=O)c2c(Cl)cnn2C)c(O)c1,"inconclusive: 12.6 µM [quencher, side channel, partial curve]",–
Oc1cccc(/C=N/c2c(-c3ccco3)nc3ccccn23)c1,"inconclusive: 15.8 µM [quencher, side channel, partial curve]",–
O=C(CSc1ccc(-c2cccc([N+](=O)[O-])c2)nn1)N1CCCCC1,"inconclusive: 15.8 µM [quencher, partial curve]",–
COc1ccc(Nc2nc(-c3sc(N)nc3C)cs2)cc1,"inconclusive: 22.4 µM [quencher, side channel, single point]",–
COC(=O)/C(=C\c1ccc([N+](=O)[O-])o1)NC(=O)c1ccccc1,"inconclusive: 12.6 µM [quencher, side channel, partial curve]",–
O=C(Nc1nnc(C2=COCCO2)o1)c1ccc([N+](=O)[O-])cc1,"inconclusive: 7.94 µM [quencher, side channel, partial curve]",–
CC(C)c1nc(=S)n(-c2ccccc2)[nH]1,–,inactive: 5.56%
